78 sequences from the supplement of paper PMC10126150 can be followed below.

Sequences with one replicate were seen in a single cluster, so their values are uncertain.
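Further: ATP exposure 15 min at 22 °C before imaging.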

In this data set the test system is ATP. The experiment in a line: switch fluorescence ratio, 500 uM ATP over buffer (Cy3 cluster intensity, sum of 5 cycles each) (fold (ratio)); higher = stronger signal-on switching upon ATP binding; sequences stand for … in TCGTCGGCAGCGTCAGATGTGTATAAGAGACAGTTTTTTTTTTTTTTTTTTTTTTTTT…TC. The note with it: aptamer strand: ATP DNA aptamer (quencher-CACCTGGGGGAGTATTGCGGAGGAAGG + anchor), 100 nM annealed; ATP concentration: 500 uM; one replicate. An outline of the steps:
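Imaging in selection buffer was followed by imaging after 15 min with 500 uM ATP at 22 °C, for Cy3-labelled switching-strand clusters annealed to 100 nM quencher-labelled ATP aptamer on a modified Illumina MiSeq flow-cell. Five of these buffer/ATP cycles ran, separated by NaOH stripping and re-annealing. The fluorescence ratio per cluster is summed target-cycle over summed buffer-cycle Cy3 intensity, averaged per switch-domain sequence; clusters outside 100-1000 RFU were removed.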
Turning to ACAATGCCGC, the switch fluorescence ratio was 1.1.
On to CCGGGTGTTC, for which the switch fluorescence ratio was 1.64.
With GATTGTGTTT the figure was 1.06; with TCTGAGGCTA, 1.87.
Regarding CATTTTAAAT, the switch fluorescence ratio amounted to 0.996.
Under TAAAGTAGGT stands 0.988.
As for CTTATAGTAT, the switch fluorescence ratio is 0.971.
Under CCATCGGGGC stands 1.13.
In the case of ACGTCAGACT, the switch fluorescence ratio worked out at 1.09.
Under GCTCTCTGAC stands 1.15; under AAACGTTGGG, 1.02.
Under AATATCTCTT stands 1.26.
As for AACTTCCGGG, the switch fluorescence ratio came to 1.98.
TTATCCGATA: the switch fluorescence ratio stood at 1.04.
With CAAGATATGT the figure was 0.978; with TAGGGGACTC, 1.44.
As for TCCATTGACC, the switch fluorescence ratio is 1.08.
As to CGTTGTTAAC, the switch fluorescence ratio came to 0.995.
As to TCGGCGTCC, the switch fluorescence ratio is 0.948.
With CTGGTATGCA the figure was 1.01; with GGCAATTTCG, 1.05; with AGGTATGTAC, 1.01.
Under AGTTTATAAG stands 0.991; under AGTTATGCTA, 1.01.
As to TGTATTGAAA, the switch fluorescence ratio was 0.961.
With AGCGCCGATC the figure was 0.976; with CGCCGGCGGT, 0.965; with GCTTAGAGGT, 0.994.
With GATTTCTCAC the figure was 1.08.
Under GTGAGGAGTG stands 1.01.
Regarding TGTGTCGATA, the switch fluorescence ratio was found to be 1.
With AACGGGAAAT the figure was 1.37.
For GCGGCTTGCT, the switch fluorescence ratio is 1.02.
On to TTGTCTGATG, for which the switch fluorescence ratio came to 0.977.
For the sequence CCCTGCCAT, the switch fluorescence ratio was found to be 1.4.
Under AGGAAGGCTA stands 1.06; under CGATTGAAAG, 1.02.
For TCAGAGACG, the switch fluorescence ratio stood at 1.
With ATTATCATGG the figure was 1.01.
Turning to AGAGTTTTAT, the switch fluorescence ratio was determined as 0.988.
Consider TAGTACTTAG, for which the switch fluorescence ratio stood at 1.01.
With CGCCGGTGCG the figure was 0.972.
As to AGTAGGTTCG, the switch fluorescence ratio worked out at 0.989.
Under CGCTTGGGGA stands 1.06; under TACATGGGGG, 1.03; under AACCTAGAGC, 0.999.
With TTTATTCAA the figure was 1.03.
With ATTAGTGCGC the figure was 0.967; with TCTTCGAAAT, 1.8; with TGCTGGCACG, 0.986.
For GAGCTCAGAG, the switch fluorescence ratio was 0.973.
On to ATGGGGCAGT, for which the switch fluorescence ratio was found to be 0.996.
In the case of AGCACTTAAC, the switch fluorescence ratio was found to be 1.25.
With CAAGGATTAT the figure was 1; with CACCTTAAAT, 1.05; with ACGGCAACTT, 1.22.
With TTTCCACAAC the figure was 1.01; with CATTCGGAGC, 1.2; with ATCAATGAAT, 0.947.
Regarding TATGAGGCGA, the switch fluorescence ratio turned out to be 1.09.
As for CAACCGATGT, the switch fluorescence ratio is 1.03.
Under GAGGCAAGAA stands 3.34; under GTTGTGGGCA, 0.983; under TTCGGGCACA, 1.04.
TTGTGTGC: the switch fluorescence ratio is 0.975.
On to TAACGTTCCG, for which the switch fluorescence ratio is 1.08.
With AAAGAAAGAC the figure was 1.04; with AAACTGACTA, 1.06; with AGTGTTAAGC, 0.978.
Under GAGCTGAGGA stands 1.03; under CGTTCGAGAT, 0.996; under AAGTGAATAG, 1.04.
With CGCCAGTAGA the figure was 1; with GGGACCTATG, 0.967.
In the case of GCCAACAGCA, the switch fluorescence ratio came to 0.996.
With GTTCAAAGTC the figure was 1.02.
As for AAGTCGAATT, the switch fluorescence ratio was 1.02.
CACATTGGAC: the switch fluorescence ratio came out at 1.07.
